Test results published in PMC6212790.
The list shows a part of the results. At the low end of the ranking the order means little.

Biological target: T1, GST-Rok-C97-191 (UniProt O34857)
T1 sequence: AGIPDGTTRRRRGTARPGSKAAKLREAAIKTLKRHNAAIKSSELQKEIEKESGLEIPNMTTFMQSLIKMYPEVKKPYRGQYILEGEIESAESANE
Assay: protein binding microarray;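 note: rank score from −0.5 (least bound) to 0.5 (best bound)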
Details: Rok is a gene silencer of Bacillus subtilis; high values mean tight binding; most listed sequences are background and not binding sites; double strand, one strand shown

| Sequence | binding signal [E-score] |
| --- | --- |
| ACCTCGAA | 0.146 |
| ATTACCGC | 0.0668 |
| ATACGATC | 0.0636 |
| GTGTAATA | 0.238 |
| CTGCCAGC | -0.0803 |
| GCATGCCC | -0.404 |
| AACTGCGA | -0.017 |
| AAAAGGAT | -0.0734 |
| AGCGCAAC | 0.00289 |
| GCCACGCA | -0.161 |
| ATATGGTC | 0.108 |
| CCTCCAGC | -0.101 |
| GCTTTTAC | 0.229 |
| AAGGTATC | 0.149 |
| ATATTGGG | 0.116 |
| AGCTCGAT | 0.0641 |
| CCTTCGAA | -0.109 |
| CACAGTAA | 0.129 |
| GGGCGCCC | -0.281 |
| CGATACGC | -0.112 |
| CAGACTAA | -0.0795 |
| CCTTTGCG | -0.172 |
| AGAGCGGC | -0.256 |
| ATGGTAAC | 0.23 |

| Sequence | binding signal [E-score] |
| --- | --- |
| AAACGGAT | -0.013 |
| AGAACCAG | 0.000695 |
| ACTCGTCT | -0.0669 |
| TAAAGACA | -0.0751 |
| GGCGTTTA | -0.0275 |
| AACCTGAC | -0.14 |
| CCGCTAAA | 0.121 |
| CGTTTAAC | 0.0785 |
| TCGATCGA | 0.0869 |
| ACGCCCAG | -0.38 |
| ATTTCCCA | 0.124 |
| ACTTGTGC | 0.0311 |
| AGCGTCAG | -0.106 |
| AAGCACTA | 0.0569 |
| CCCAGGGA | -0.0839 |
| CAGTATGA | 0.176 |
| CAAGCCTC | -0.0994 |
| CCATCTAG | -0.0123 |
| TCCAGCGA | -0.0104 |
| GGACATAA | 0.208 |
| AAAATTTT | 0.274 |
| CTTGACGA | -0.14 |
| ACAAAAAG | -0.0948 |
| GGCCCGGA | -0.378 |

| Sequence | binding signal [E-score] |
| --- | --- |
| AAGTTCAT | 0.0467 |
| AGTCAGTC | -0.151 |
| GCTAGGCC | -0.146 |
| CCATCCCC | -0.128 |
| CACGCGTG | 0.0775 |
| GCAGTCGA | -0.243 |
| ACTAAAAT | 0.397 |
| GCTTCGAA | -0.168 |
| CAATCTAG | 0.206 |
| ATAACGCG | 0.181 |
| TCATTTCA | -0.0244 |
| AGCACAAC | -0.114 |
| CAATCCCA | -0.0402 |
| CAATTCAG | -0.0882 |
| ATGGTCCC | -0.017 |
| AGCATGCA | -0.131 |
| GGTCGAAA | -0.26 |
| CCGATAGG | 0.0855 |
| AGGCTTAA | -0.183 |
| CTGATGAA | -0.0901 |
| CGATAATC | 0.189 |
| TAACTCTA | 0.205 |
| AACGTTTG | 0.0298 |
| TCCAACAA | -0.0242 |

| Sequence | binding signal [E-score] |
| --- | --- |
| CCCCTTTC | -0.0869 |
| ACTGCATA | 0.22 |
| CAATTCGG | -0.0547 |
| ATACTCGC | 4.42e-05 |
| CTACAAAC | 0.114 |
| TCTCTACA | 0.0572 |
| GGATTGTA | 0.167 |
| AAAACGTT | -0.0641 |
| CTAGACGC | -0.0749 |
| AAAAGTCC | 0.00591 |
| AGGACCAA | -0.103 |
| ACGCGTAG | 0.102 |
| GGCTAACC | -0.244 |
| ATAAAACA | 0.138 |
| GAATTAGA | 0.0265 |
| ACTGCGAC | -0.0467 |
| ACTTCGGA | -0.0138 |
| AGTCTAAG | 0.024 |
| AGATTGGC | 0.165 |
| TACGATCA | -0.136 |
| ATTGTGAA | 0.0643 |
| CCCTGGGA | -0.0444 |
